Source: US20090022663A1 (published 2009)

Target: T1, purified recombinant 161P2F10B extracellular domain (Tag5-161P2F10B ECD, amino acids 46-875) (human, UniProt O14638 46-875)
T1 construct: also called full length ECD
Assay: SPR (BIAcore), MAb captured on chip, recombinant 161P2F10B injected, 1:1 fit;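 note: purified human MAbs immobilised by capture on a CM5 chip surface, about 150 RU of antibody per cycle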

koff: 1.2e-05 s⁻¹
kon: 900000 M⁻¹ s⁻¹
B1: H16-1.52 (antibody, V domains shown)
VH: [not shown - about 100 residues]DGYSSGWNYFDYWGQGTLVTVSS
VL: DIVMTQSPDSLAVSLGERATINCKSSQSVLYSSNNKNYLAWYQQKPGQPPKLLIYWASTRESGVPDRFSGSGSGTDFTLTISSLQAEDVAVYYCQEYYSTMCSFGQGTKLEIKR
